Screen size: about 420,000 compounds; about 64,000 (15%) were called active. The inconclusive results got no clear call from the source; some entries with a clear call stand among them for comparison. Calls follow the shape of the dose curve; as a rule, active = well fitted inhibition curve with a large enough effect; inconclusive = small, poorly fitted or top-dose-only effect; inactive = flat fitted curve, though single readings scatter. Potencies of inconclusive entries are left out as doubtful fits.
Assay: qHTS for Inhibitors of human tyrosyl-DNA phosphodiesterase 1 (TDP1): qHTS in cells in absence of CPT; also: nearly all actives have a fitted effect of over 55% in size
Details: DT40 Tdp1-/- hTDP1 cells, no CPT, ATP luminescence, 48 h; activity change, negative = growth inhibition: at 46.2 µM (top of the series) unless noted
How it was run: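 Chicken DT40 Tdp1-/- cells stably complemented with human TDP1 were seeded at 400 cells/well with DMSO in place of 20 nM camptothecin. After compound pinning, cells grew at least 48 hr at 37 °C; viability read by CellTiter-Glo luminescence.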
% is scaled to controls: 0 for no effect and ±100 for the full control effect; potency is read from the fitted curve at half-maximal effect; tags tell the direction and shape of the fitted curve.

SMILES	Potency	activity change, negative = growth inhibition
CCOc1ccc(Oc2ccc(Cl)cc2NC(=O)C2=COCCO2)cc1	inconclusive [inhibitor, single point]	
CCN(CC(=O)NCc1ccc(F)cc1)C(=O)c1cccc(S(=O)(=O)N(C)c2ccc(OC)cc2)c1	inconclusive [inhibitor, single point]	
O=C(Nc1ccc(Cl)cc1)c1csc([C@@H]2C[C@H](O)[C@@H](CO)O2)n1	inactive	
Cc1ccc(-n2c(O)cnc2Nc2nc(C)cc(C)n2)cc1	inconclusive [inhibitor, partial curve]	
COc1ccc([C@H]2N[C@]3(CCCN(Cc4ccc(C(F)(F)F)cc4)C3=O)[C@H]3C(=O)N(C)C(=O)[C@@H]23)cc1	inconclusive [inhibitor, partial curve]	
O=[N+]([O-])c1ccc(-n2nnnc2-c2ccccc2)cc1	inconclusive [inhibitor, single point]	
Nc1[nH]c(=O)nc(Nc2ccccc2)c1N=O	inactive	
COc1ccc(NC2=NCCC2)cc1	inactive	
COc1cc(/C=C(\CC(=O)O)c2nc3ccccc3s2)cc(OC)c1O	inconclusive [inhibitor, single point]	
CC1=CN2C(c3cccc([N+](=O)[O-])c3)=NON(c3ccc(C)cn3)C2C=C1 (configuration not stated)	inconclusive [inhibitor, single point]	
O=C(CN(Cc1ccc(Br)cc1)S(=O)(=O)c1ccccc1)NCc1cccnc1	inconclusive [inhibitor, single point]	
CCN(CC)S(=O)(=O)c1ccc2c(c1)N(CC(=O)Nc1ccc(Cl)cc1)C(=O)C1CCCN21 (configuration not stated)	inconclusive [inhibitor, single point]	
O=C(O)c1ccc(/C=C2\SC(=S)N(Nc3ccccc3)C2=O)cc1	inactive	
O=C(Nc1ccccc1)NC1CCCc2ccccc21 (configuration not stated)	active: 18.4 µM	
O=C1CCCC(=O)C1C1c2ccccc2CCN1C(=O)CCl (configuration not stated)	inactive	
COc1ccc(NC(=O)NNC(=O)CCc2ccc(O)c(O)c2)cc1OC	inactive	
CNC(=O)c1ccc(-n2cccn2)nc1	inactive	
CCc1nc2ccc(C(=O)Nc3ccc4c(c3)OCC(=O)N4)cn2c1N(C)C(=O)C1CCCCC1	inconclusive [inhibitor, single point]	
COc1cccc(-c2nc(Cn3c(=O)cc(C)c4c(C)nn(-c5ccccc5)c43)c(C)o2)c1OC	inactive	
Cc1cc(C)c(OCC(=O)OCC(=O)N2c3ccccc3CC2C)c(C)c1 (configuration not stated)	inactive	
CC1(C(=O)Nc2ccc3c(c2)OCCO3)CCN1C(=O)C1(c2ccc(Cl)cc2)CC1 (configuration not stated)	inconclusive [inhibitor, single point]	
C=CCn1c(-c2ccc(C)cc2)nc2ccccc21	active: 20.6 µM	
CCC1=NN(C(=O)c2ccc(C)cc2)C(O)(c2ccc(Br)cc2)C1 (configuration not stated)	inconclusive [inhibitor, single point]	
CSc1ccc(CNC(=O)C2Cc3cc(S(=O)(=O)N4CCCCC4)ccc3N2C(C)=O)cc1 (configuration not stated)		inconclusive: -35.6% [inhibitor]

SMILES	Potency	activity change, negative = growth inhibition
Cc1ccc(-n2nc(C)c3c(C(=O)Nc4ccccc4C(F)(F)F)cc(C)nc32)cc1	inconclusive [inhibitor, single point]	
Cc1ccc2c(c1)C(c1ccccc1)N(C(=O)COc1ccc(Cl)cc1Cl)CC(=O)N2 (configuration not stated)	active: 20.6 µM	
COc1cc(CN2CCCCCC2)cc(OC)c1OC	inactive	
CC1=C(C(=O)Nc2ccccc2)C(c2ccccn2)n2nc(SCc3ccccc3)nc2N1 (configuration not stated)	inconclusive [inhibitor, partial curve]	
COc1ccc2cc(-c3cccnc3)ncc2c1	inconclusive [inhibitor, single point]	
CC(/C=N/n1c(-c2ccccn2)n[nH]c1=S)=C\c1ccccc1	inconclusive [inhibitor, partial curve]	
O=C(Nc1ccccc1N1CCCCC1)C1=COCCO1	active: 11.6 µM	
CCCCN1C(=O)C(O)(CC(=O)c2ccc(CC)cc2)c2cc(Br)ccc21 (configuration not stated)	active: 18.4 µM	
COc1ccc(NC(=S)NCc2ccccc2Cl)c(OC)c1	inconclusive [inhibitor, single point]	
COc1ccccc1CNS(=O)(=O)c1ccc2c(c1)N(C(C)=O)CC(C)S2 (configuration not stated)	inconclusive [inhibitor, single point]	
O=C(Nc1nc(-c2ccc(Oc3ccccc3)cc2)cs1)C1=COCCO1	active: 11.6 µM	
COc1ccc(C2=CCN3CCCCC3C2)c(-c2ccc(OC)c(OC)c2)c1 (configuration not stated)	inconclusive [inhibitor, partial curve]	
COc1ccc(C(=O)C2CCCN(Cc3cccn3-c3nccs3)C2)cc1F (configuration not stated)	active: 20.6 µM	
CC(C)(C)c1cc(CSC(=S)NC2CCS(=O)(=O)C2)c(Br)c(C(C)(C)C)c1 (configuration not stated)	active: 11.6 µM	
Cc1ccc(S(=O)(=O)NC(=O)Nc2nccs2)cc1	inactive	
OC(COC(c1ccc(F)cc1)c1ccc(F)cc1)CN1CCc2ccccc2C1 (configuration not stated)	inconclusive [inhibitor, single point]	
COc1ccc(NC(=O)c2cc([N+](=O)[O-])ccc2NC(=O)CNCc2ccccn2)c(OC)c1	active: 13 µM	
CCN(Cc1ccccc1)C(c1ccc(C)cc1)c1nnnn1C(C)(C)CC (configuration not stated)	active: 13 µM	
O=C(Nc1cccc(O)c1)c1c(O)c2ccccc2[nH]c1=O	inconclusive [inhibitor, single point]	
Cc1ccc(-n2ccc(-c3nn(-c4ccccc4)ccc3=O)n2)cc1	inconclusive [inhibitor, single point]	
C=CCN(c1ccccc1)S(=O)(=O)c1cccc(C(=O)N(CC)CC(=O)Nc2c(F)cccc2F)c1	active: 14.6 µM	
CC1CCN(c2ccc3c(c2)S(=O)(=O)c2ccccc2C3=O)CC1	inconclusive [inhibitor, single point]	
Nc1ccc(S(=O)(=O)Nc2ccc(C(=O)c3ccccc3)cc2)cc1	inconclusive [inhibitor, single point]	

From PubChem BioAssay AID686978 (National Center for Advancing Translational Sciences (NCATS), 2013)
